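How tested: cells in 96-well plates exposed to compound for 48 hours at five concentrations. The concentration for 50% growth inhibition is given as GI50.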 Not every entry of the source has a single result; some have several. This is not the full list of results. The source may hold further records. A record mostly stands for its own series of concentrations, which the source does not state; some values may only mark the edge of a range.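 The concentration for full growth arrest is given as TGI.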
How the values were obtained:
Test in all cases: inhibition of tumour cell growth, NCI panel, 48 h
[1] = system: 786-0 renal
[2] = system: A498 renal
[3] = system: A549 NSCLC
[4] = system: ACHN renal
[5] = system: BT-549 breast
[6] = system: CCRF-CEM leukemia
[7] = system: DU-145 prostate
[8] = system: EKVX NSCLC
[9] = system: HCC-2998 colon
[10] = system: HCT-116 colon
[11] = system: HCT-15 colon
[12] = system: HL-60(TB) leukemia
[13] = system: HOP-62 NSCLC
[14] = system: HOP-92 NSCLC
[15] = system: HS 578T breast
[16] = system: HT29 colon
[17] = system: IGROV1 ovarian
[18] = system: K-562 leukemia
[19] = system: KM12 colon
[20] = system: LOX IMVI melanoma
[21] = system: M14 melanoma
[22] = system: MALME-3M melanoma
[23] = system: MCF7 breast
[24] = system: MDA-MB-231 breast
[25] = system: MDA-MB-435
[26] = system: MDA-N
[27] = system: MOLT-4 leukemia
[28] = system: NCI-H226 lung
[29] = system: NCI-H23 lung
[30] = system: OVCAR-3 ovarian
[31] = system: OVCAR-4 ovarian
[32] = system: OVCAR-5 ovarian
[33] = system: OVCAR-8 ovarian
[34] = system: PC-3 prostate
[35] = system: RPMI-8226 leukemia
[36] = system: RXF 393 renal
[37] = system: SF-268 CNS
[38] = system: SF-295 CNS
[39] = system: SF-539 CNS
[40] = system: SK-MEL-2 melanoma
[41] = system: SK-MEL-5 melanoma
[42] = system: SK-OV-3 ovarian
[43] = system: SN12C renal
[44] = system: SNB-19 CNS
[45] = system: SNB-75 CNS
[46] = system: SR leukemia
[47] = system: SW-620 colon
[48] = system: TK-10 renal
[49] = system: U251 CNS
[50] = system: UACC-257 melanoma
[51] = system: UACC-62 melanoma
[52] = system: UO-31 renal

`CC[C@]1(O)C[C@H]2CN(CCc3c([nH]c4ccccc34)[C@@](C(=O)OC)(c3cc4c(cc3OC)N(C=O)[C@H]3[C@@](O)(C(=O)OC)[C@H](OC(C)=O)[C@]5(CC)C=CCN6CC[C@]43[C@@H]65)C2)C1` was tested, and the GI50 [1] was 1.95 µM [1 test] and 114 nM [mean of 20 tests] and 1.07 nM [mean of 6 tests], the TGI [1] was 62.5 µM [1 test] and > 69.7 µM [mean of 20 tests] and 585 nM [mean of 6 tests] and the TGI [2] was 43.7 nM and 631 nM. The GI50 [3] was 1.95 µM [mean of 2 tests] and 108 nM [mean of 50 tests] and 8.24 nM [mean of 9 tests], the TGI [3] was 158 µM [mean of 2 tests] and 124 µM [mean of 50 tests] and 5.94 µM [mean of 9 tests] and the TGI [4] was 2.61 µM and 150 µM. The GI50 [5] was 23.6 µM [1 test] and 19.9 nM [mean of 4 tests] and 259 nM [mean of 5 tests], the TGI [5] was 61 µM [1 test] and 2.03 µM [mean of 4 tests] and 62.7 µM [mean of 5 tests] and the GI50 [6] was 1.95 µM [mean of 2 tests] and 1.04 nM [mean of 6 tests]. For the same compound, the TGI [6] was 464 nM, 60.8 µM, 44.2 µM, the GI50 [7] was 119 nM [mean of 5 tests] and 1.11 nM [mean of 7 tests] and the TGI [7] was 36.8 µM [mean of 5 tests] and 208 nM [mean of 7 tests]. The GI50 [8] was 1.95 µM [1 test] and 6.43 nM [mean of 7 tests], the TGI [8] was 6.39 µM, 122 µM, 180 µM and the GI50 [9] was 109 nM [mean of 38 tests] and 1.06 nM [mean of 7 tests]. For the same compound, the TGI [9] was 5.82 µM [mean of 38 tests] and 18.5 nM [mean of 7 tests], the TGI [10] was 50.7 nM and 3.8 µM and the GI50 [11] was 1.95 µM [mean of 2 tests] and 42.2 nM [mean of 9 tests]. The TGI [11] was 1.88 µM, 27.4 µM, 35.6 µM, the GI50 [12] was 107 nM [mean of 34 tests] and 1.07 nM [mean of 6 tests] and the TGI [12] was 450 nM [mean of 34 tests] and 14.4 nM [mean of 6 tests]. The GI50 [13] was 1.95 µM [mean of 2 tests] and 1 nM [mean of 6 tests], the GI50 [14] was 1.95 µM [mean of 2 tests] and 119 nM [mean of 39 tests] and 12 nM [mean of 5 tests] and the GI50 [15] was 1.95 µM [mean of 2 tests] and 4.64 nM [mean of 6 tests]. For the same compound, the TGI [15] was 64.7 µM [mean of 2 tests] and 5.74 µM [mean of 5 tests] and 2.15 µM [mean of 6 tests], the GI50 [16] was 107 nM [mean of 35 tests] and < 1 nM [mean of 4 tests] and the GI50 [17] was 1.95 µM [mean of 2 tests] and 5.82 nM [mean of 8 tests]. The TGI [17] was 95.6 µM [mean of 2 tests] and 38.9 µM [mean of 45 tests] and 920 nM [mean of 8 tests], the GI50 [18] was 1.95 µM [1 test] and 2.3 nM [mean of 7 tests] and the TGI [18] was 7.91 µM [1 test] and 71 µM [mean of 45 tests] and 3.44 µM [mean of 7 tests]. The GI50 [19] was 2.93 µM [mean of 2 tests] and 109 nM [mean of 28 tests] and 2.88 nM [mean of 5 tests], the TGI [19] was 93.6 µM [mean of 2 tests] and 1.4 µM [mean of 28 tests] and 509 nM [mean of 5 tests] and the GI50 [20] was 1.95 µM [mean of 2 tests] and 105 nM [mean of 45 tests] and < 1 nM [mean of 6 tests]. For the same compound, the TGI [20] was 46.8 µM [mean of 2 tests] and 57.9 µM [mean of 45 tests] and 2.15 µM [mean of 6 tests], the GI50 [21] was 105 nM [mean of 18 tests] and 1.95 µM [mean of 2 tests] and < 1 nM [mean of 5 tests] and the TGI [21] was 10.2 µM [mean of 18 tests] and 36.2 µM [mean of 2 tests] and 213 nM [mean of 5 tests]. The GI50 [22] was 1.95 µM [mean of 2 tests] and 3.17 nM [mean of 5 tests], the GI50 [23] was 1.95 µM [mean of 2 tests] and < 1 nM [mean of 7 tests] and the TGI [23] was 133 µM [mean of 2 tests] and 58.8 µM [mean of 30 tests] and 1.13 µM [mean of 7 tests]. The TGI [24] was 689 nM [mean of 6 tests] and 29.2 nM [mean of 8 tests], the TGI [25] was 16.2 nM and 1.22 µM and the TGI [26] was 21.5 nM and 1.07 µM. The GI50 [27] was 1.95 µM [mean of 2 tests] and 101 nM [mean of 42 tests] and 8.98 nM [mean of 7 tests], the GI50 [28] was 1.95 µM [mean of 2 tests] and 122 nM [mean of 35 tests] and 10.8 nM [mean of 6 tests] and the TGI [28] was 9.99 µM [mean of 2 tests] and 327 nM [mean of 35 tests] and 1.71 µM [mean of 6 tests]. For the same compound, the TGI [29] was 28.7 nM and 15.3 µM, the GI50 [30] was 1.95 µM [1 test] and 2.87 nM [mean of 7 tests] and the TGI [30] was 12.3 nM, 455 nM, 140 µM. For the same compound, the GI50 [31] was 42.4 µM [mean of 2 tests] and 32.8 nM [mean of 3 tests] and 476 nM [mean of 42 tests], the GI50 [32] was 135 µM [1 test] and 9.6 nM [mean of 6 tests] and the TGI [32] was 8.62 µM, 210 µM, 254 µM. For the same compound, the GI50 [33] was 1.95 µM [mean of 2 tests] and 105 nM [mean of 46 tests] and 4.49 nM [mean of 7 tests], the TGI [33] was 78.7 µM [mean of 2 tests] and 11.3 µM [mean of 46 tests] and 890 nM [mean of 7 tests] and the GI50 [34] was 1.95 µM [mean of 2 tests] and 1.47 nM [mean of 8 tests]. For the same compound, the TGI [34] was 93.8 µM [mean of 2 tests] and 11.6 µM [mean of 6 tests] and 674 nM [mean of 8 tests], the GI50 [35] was 1.95 µM [mean of 2 tests] and 106 nM [mean of 38 tests] and < 1 nM [mean of 7 tests] and the TGI [35] was 26.8 µM [mean of 2 tests] and 14.8 µM [mean of 38 tests] and 196 nM [mean of 7 tests]. For the same compound, the GI50 [36] was 1.95 µM [mean of 2 tests] and 49.9 nM [mean of 4 tests], the GI50 [37] was 1.95 µM [mean of 2 tests] and < 1 nM [mean of 7 tests] and the GI50 [38] was 106 nM [mean of 41 tests] and 2.92 nM [mean of 7 tests]. The GI50 [39] was 106 nM [mean of 41 tests] and < 1 nM [mean of 5 tests], the TGI [39] was 135 nM [mean of 41 tests] and 4.95 nM [mean of 5 tests] and the GI50 [40] was 1.95 µM [1 test] and 71.6 nM [mean of 8 tests]. For the same compound, the TGI [40] was 1.51 µM, 1.66 µM, 80.7 µM, the GI50 [41] was 1.95 µM [1 test] and 111 nM [mean of 44 tests] and < 1 nM [mean of 8 tests] and the TGI [41] was 64 µM [1 test] and 519 nM [mean of 44 tests] and 5.63 nM [mean of 8 tests]. For the same compound, the GI50 [42] was 1.95 µM [mean of 2 tests] and 1.82 nM [mean of 6 tests], the TGI [42] was 1.4 µM, 22.7 µM, 22.2 µM and the GI50 [43] was 1.95 µM [mean of 2 tests] and 119 nM [mean of 46 tests] and 1.26 nM [mean of 7 tests]. The TGI [43] was 111 µM [mean of 2 tests] and 102 µM [mean of 46 tests] and 446 nM [mean of 7 tests], the GI50 [44] was 1.95 µM [mean of 2 tests] and 3.04 nM [mean of 7 tests] and the GI50 [45] was 1.95 µM [mean of 2 tests] and < 1 nM [mean of 3 tests]. The TGI [45] was 21.5 nM, 56.3 µM, 80.5 µM, the TGI [46] was 212 nM and 11.3 µM and the GI50 [47] was 1.95 µM [mean of 2 tests] and 105 nM [mean of 48 tests] and < 1 nM [mean of 9 tests]. The GI50 [48] was 2.66 µM [mean of 15 tests] and 8.44 µM [mean of 2 tests] and 44.7 nM [mean of 7 tests], the TGI [48] was 158 µM [mean of 15 tests] and 14.6 µM [mean of 2 tests] and 2.61 µM [mean of 7 tests] and the GI50 [49] was 1.95 µM [mean of 2 tests] and < 1 nM [mean of 7 tests]. For the same compound, the GI50 [50] was 1.95 µM [mean of 2 tests] and 145 nM [mean of 37 tests] and 249 nM [mean of 7 tests], the TGI [50] was 67 µM [mean of 2 tests] and 72.3 µM [mean of 37 tests] and 2.68 µM [mean of 7 tests] and the GI50 [51] was 6.03 µM [mean of 2 tests] and 126 nM [mean of 47 tests] and < 1 nM [mean of 6 tests]. The TGI [52] was 154 µM and 10.5 µM.

Reference: PubChem BioAssay (NCI)
